Assay results published in the supplement of paper PMC4967469.

The cell lines below were run with CCc1nc(-c2cccc(C)c2)c(-c2ccnc(NC(=O)c3ccccc3)c2)s1 [TAK-715] (assay: Viability of human cancer cell lines after 72 h of drug (GDSC screen)). Conditions: top dose inferred.
Protocol: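 Human cancer cell lines in 384-well plates, medium with 10% serum, drug for 72 h over a 256-fold dose range (nine 2-fold or five 4-fold steps up to the top dose). Adherent lines were fixed and stained with the nucleic acid dye Syto60, suspension lines read with resazurin; signal relative to control wells, capped at 0 and 100%. One two-parameter sigmoid per drug and line, fitted in a mixed model over all curves with the slope shared within a line.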

First: SNU-1040 (large intestine, adherent, top dose 20 µM)
Second: SNU-C1 (large intestine, suspension, top dose 20 µM)
The AUC of the first is lower: 0.822 for the first, 0.955 for the second.

Going from “SNU-C2B (large intestine, adherent, top dose 20 µM)” to “SNU-C5 (large intestine, adherent, top dose 20 µM)”, the AUC rises from 0.895 to 0.946.

First: SR (lymphoid neoplasm, suspension, top dose 20 µM)
Second: ST486 (Burkitt lymphoma, suspension, top dose 20 µM)
The AUC of the first is higher: 0.879 for the first, 0.842 for the second.

Compared with “STS-0421 (soft tissue, adherent, top dose 20 µM)”, “SU8686 (pancreas, adherent, top dose 20 µM)” is higher in AUC: 0.96 for the first, 0.965 for the second.

Going from “SU-DHL-1 (anaplastic large cell lymphoma, suspension, top dose 20 µM)” to “SU-DHL-4 (B-cell lymphoma, suspension, top dose 20 µM)”, the AUC rises from 0.918 to 0.99.

Going from “SU-DHL-5 (B-cell lymphoma, suspension, top dose 20 µM)” to “SU-DHL-6 (B-cell lymphoma, suspension, top dose 20 µM)”, the AUC falls from 0.88 to 0.876.

Compared with “SU-DHL-8 (B-cell lymphoma, suspension, top dose 20 µM)”, “SU-DHL-10 (B-cell lymphoma, suspension, top dose 20 µM)” is lower in AUC: 0.823 for the first, 0.677 for the second.

Going from “SU-DHL-16 (B-cell lymphoma, suspension, top dose 20 µM)” to “SUIT-2 (pancreas, adherent, top dose 20 µM)”, the AUC rises from 0.903 to 0.92.

Compared with “SUP-B15 (lymphoblastic leukaemia, suspension, top dose 20 µM)”, “SUP-HD1 (Hodgkin lymphoma, suspension, top dose 20 µM)” is higher in AUC: 0.699 for the first, 0.868 for the second.

Going from “SUP-M2 (anaplastic large cell lymphoma, suspension, top dose 20 µM)” to “SUP-T1 (T-cell lymphoblastic leukaemia, suspension, top dose 20 µM)”, the AUC falls from 0.896 to 0.688.

First: SW13 (adrenal gland, adherent, top dose 20 µM)
Second: SW48 (large intestine, adherent, top dose 20 µM)
The AUC of the first is higher: 0.966 for the first, 0.944 for the second.

Going from “SW156 (kidney, adherent, top dose 20 µM)” to “SW620 (large intestine, adherent, top dose 20 µM)”, the AUC falls from 0.941 to 0.852.

Going from SW626 (ovary, adherent, top dose 20 µM) to “SW684 (fibrosarcoma, adherent, top dose 20 µM)”, the AUC rises from 0.915 to 0.978.

First: SW756 (cervix, adherent, top dose 20 µM)
Second: SW780 (bladder, adherent, top dose 20 µM)
The AUC of the first is higher: 0.984 for the first, 0.971 for the second.

Going from “SW837 (large intestine, adherent, top dose 20 µM)” to “SW872 (soft tissue, adherent, top dose 20 µM)”, the AUC rises from 0.946 to 0.966.

Compared with “SW900 (lung squamous cell carcinoma, adherent, top dose 20 µM)”, “SW948 (large intestine, adherent, top dose 20 µM)” is lower in AUC: 0.984 for the first, 0.939 for the second.

First: SW954 (urogenital system, adherent, top dose 20 µM)
Second: SW962 (urogenital system, adherent, top dose 20 µM)
The AUC of the first is lower: 0.94 for the first, 0.981 for the second.

First: SW982 (soft tissue, adherent, top dose 20 µM)
Second: SW1088 (glioma, adherent, top dose 20 µM)
The AUC of the first is higher: 0.985 for the first, 0.977 for the second.

Going from “SW1116 (large intestine, adherent, top dose 20 µM)” to “SW1271 (small cell lung carcinoma, adherent, top dose 20 µM)”, the AUC falls from 0.985 to 0.958.

First: SW1417 (large intestine, adherent, top dose 20 µM)
Second: SW1463 (large intestine, adherent, top dose 20 µM)
The AUC of the first is higher: 0.985 for the first, 0.961 for the second.

Compared with “SW1573 (lung adenocarcinoma, adherent, top dose 20 µM)”, “SW1710 (bladder, adherent, top dose 20 µM)” is higher in AUC: 0.946 for the first, 0.948 for the second.

First: SW1783 (glioma, adherent, top dose 20 µM)
Second: SW1990 (pancreas, adherent, top dose 20 µM)
The AUC of the first is lower: 0.94 for the first, 0.974 for the second.

Compared with “Saos-2 (osteosarcoma, adherent, top dose 20 µM)”, SiHa (cervix, adherent, top dose 20 µM) is higher in AUC: 0.981 for the first, 0.984 for the second.

Going from T47D (breast, adherent, top dose 20 µM) to “T84 (large intestine, adherent, top dose 20 µM)”, the AUC rises from 0.948 to 0.955.

First: T98G (glioma, adherent, top dose 20 µM)
Second: T-24 (bladder, adherent, top dose 20 µM)
The AUC of the first is higher: 0.981 for the first, 0.955 for the second.

Going from “T-T (oesophagus, adherent, top dose 20 µM)” to “TALL-1 (T-cell lymphoblastic leukaemia, suspension, top dose 20 µM)”, the AUC falls from 0.987 to 0.941.

First: TC-71 (Ewing sarcoma, adherent, top dose 20 µM)
Second: TCCSUP (bladder, adherent, top dose 20 µM)
The AUC of the first is lower: 0.891 for the first, 0.979 for the second.

Compared with “TE-1 (oesophagus, adherent, top dose 20 µM)”, “TE-4 (oesophagus, adherent, top dose 20 µM)” is lower in AUC: 0.913 for the first, 0.873 for the second.

Compared with “TE-5 (oesophagus, adherent, top dose 20 µM)”, “TE-6 (oesophagus, adherent, top dose 20 µM)” is lower in AUC: 0.939 for the first, 0.925 for the second.

Compared with “TE-8 (oesophagus, adherent, top dose 20 µM)”, “TE-9 (oesophagus, adherent, top dose 20 µM)” is higher in AUC: 0.918 for the first, 0.92 for the second.

First: SNU-1040 (large intestine, adherent, top dose 20 µM)
Second: SNU-C1 (large intestine, suspension, top dose 20 µM)
The IC50 of the first is lower: 17.4 µM for the first, greater than 20 µM for the second.

“SNU-C2B (large intestine, adherent, top dose 20 µM)” and “SNU-C5 (large intestine, adherent, top dose 20 µM)” cannot be ordered by IC50: greater than 20 µM for the first, greater than 20 µM for the second.

“SR (lymphoid neoplasm, suspension, top dose 20 µM)” and “ST486 (Burkitt lymphoma, suspension, top dose 20 µM)” are within 1.5-fold of each other in IC50: 17 µM for the first, 11.8 µM for the second.

“STS-0421 (soft tissue, adherent, top dose 20 µM)” and “SU8686 (pancreas, adherent, top dose 20 µM)” cannot be ordered by IC50: greater than 20 µM for the first, greater than 20 µM for the second.

Compared with “SU-DHL-1 (anaplastic large cell lymphoma, suspension, top dose 20 µM)”, “SU-DHL-4 (B-cell lymphoma, suspension, top dose 20 µM)” is higher in IC50: 14.7 µM for the first, greater than 20 µM for the second.

“SU-DHL-5 (B-cell lymphoma, suspension, top dose 20 µM)” and “SU-DHL-6 (B-cell lymphoma, suspension, top dose 20 µM)” are within 1.5-fold of each other in IC50: 12.1 µM for the first, 11.5 µM for the second.

First: SU-DHL-8 (B-cell lymphoma, suspension, top dose 20 µM)
Second: SU-DHL-10 (B-cell lymphoma, suspension, top dose 20 µM)
The IC50 of the first is 3.2-fold higher: 10.7 µM for the first, 3.35 µM for the second.

Compared with “SU-DHL-16 (B-cell lymphoma, suspension, top dose 20 µM)”, “SUIT-2 (pancreas, adherent, top dose 20 µM)” is higher in IC50: 13.4 µM for the first, greater than 20 µM for the second.

Going from “SUP-B15 (lymphoblastic leukaemia, suspension, top dose 20 µM)” to “SUP-HD1 (Hodgkin lymphoma, suspension, top dose 20 µM)”, the IC50 rises from 4.41 µM to 16.8 µM (3.8-fold).

First: SUP-M2 (anaplastic large cell lymphoma, suspension, top dose 20 µM)
Second: SUP-T1 (T-cell lymphoblastic leukaemia, suspension, top dose 20 µM)
The IC50 of the first is 3.6-fold higher: 14.3 µM for the first, 3.97 µM for the second.

“SW13 (adrenal gland, adherent, top dose 20 µM)” and “SW48 (large intestine, adherent, top dose 20 µM)” cannot be ordered by IC50: greater than 20 µM for the first, greater than 20 µM for the second.

Going from “SW156 (kidney, adherent, top dose 20 µM)” to “SW620 (large intestine, adherent, top dose 20 µM)”, the IC50 falls from greater than 20 µM to 12.8 µM.

SW626 (ovary, adherent, top dose 20 µM) and “SW684 (fibrosarcoma, adherent, top dose 20 µM)” cannot be ordered by IC50: greater than 20 µM for the first, greater than 20 µM for the second.

“SW756 (cervix, adherent, top dose 20 µM)” and “SW780 (bladder, adherent, top dose 20 µM)” cannot be ordered by IC50: greater than 20 µM for the first, greater than 20 µM for the second.

“SW837 (large intestine, adherent, top dose 20 µM)” and “SW872 (soft tissue, adherent, top dose 20 µM)” cannot be ordered by IC50: greater than 20 µM for the first, greater than 20 µM for the second.

“SW900 (lung squamous cell carcinoma, adherent, top dose 20 µM)” and “SW948 (large intestine, adherent, top dose 20 µM)” cannot be ordered by IC50: greater than 20 µM for the first, greater than 20 µM for the second.

“SW954 (urogenital system, adherent, top dose 20 µM)” and “SW962 (urogenital system, adherent, top dose 20 µM)” cannot be ordered by IC50: greater than 20 µM for the first, greater than 20 µM for the second.

“SW982 (soft tissue, adherent, top dose 20 µM)” and “SW1088 (glioma, adherent, top dose 20 µM)” cannot be ordered by IC50: greater than 20 µM for the first, greater than 20 µM for the second.

“SW1116 (large intestine, adherent, top dose 20 µM)” and “SW1271 (small cell lung carcinoma, adherent, top dose 20 µM)” cannot be ordered by IC50: greater than 20 µM for the first, greater than 20 µM for the second.

“SW1417 (large intestine, adherent, top dose 20 µM)” and “SW1463 (large intestine, adherent, top dose 20 µM)” cannot be ordered by IC50: greater than 20 µM for the first, greater than 20 µM for the second.

“SW1573 (lung adenocarcinoma, adherent, top dose 20 µM)” and “SW1710 (bladder, adherent, top dose 20 µM)” cannot be ordered by IC50: greater than 20 µM for the first, greater than 20 µM for the second.

“SW1783 (glioma, adherent, top dose 20 µM)” and “SW1990 (pancreas, adherent, top dose 20 µM)” cannot be ordered by IC50: greater than 20 µM for the first, greater than 20 µM for the second.

“Saos-2 (osteosarcoma, adherent, top dose 20 µM)” and SiHa (cervix, adherent, top dose 20 µM) cannot be ordered by IC50: greater than 20 µM for the first, greater than 20 µM for the second.

T47D (breast, adherent, top dose 20 µM) and “T84 (large intestine, adherent, top dose 20 µM)” cannot be ordered by IC50: greater than 20 µM for the first, greater than 20 µM for the second.

T98G (glioma, adherent, top dose 20 µM) and “T-24 (bladder, adherent, top dose 20 µM)” cannot be ordered by IC50: greater than 20 µM for the first, greater than 20 µM for the second.

“T-T (oesophagus, adherent, top dose 20 µM)” and “TALL-1 (T-cell lymphoblastic leukaemia, suspension, top dose 20 µM)” cannot be ordered by IC50: greater than 20 µM for the first, greater than 20 µM for the second.

First: TC-71 (Ewing sarcoma, adherent, top dose 20 µM)
Second: TCCSUP (bladder, adherent, top dose 20 µM)
The IC50 of the first is lower: 16.5 µM for the first, greater than 20 µM for the second.

Going from “TE-1 (oesophagus, adherent, top dose 20 µM)” to “TE-4 (oesophagus, adherent, top dose 20 µM)”, the IC50 falls from greater than 20 µM to 19.1 µM.

“TE-5 (oesophagus, adherent, top dose 20 µM)” and “TE-6 (oesophagus, adherent, top dose 20 µM)” cannot be ordered by IC50: greater than 20 µM for the first, greater than 20 µM for the second.

“TE-8 (oesophagus, adherent, top dose 20 µM)” and “TE-9 (oesophagus, adherent, top dose 20 µM)” cannot be ordered by IC50: greater than 20 µM for the first, greater than 20 µM for the second.

Lines with a small IC50 respond at low doses; a limit (>, <) means that the fit lies beyond the doses tested. The AUC spans the tested range (256-fold, ending at the top dose) of the same fit; values near 1 show little effect. Any top dose called inferred is not printed in the source and was worked back from the curve model.
